Measurements reported in ChEMBL document CHEMBL4888484, “Replenishing the malaria drug discovery pipeline: Screening and hit evaluation of the MMV Hit Generation Library 1 (HGL1) against asexual blood stage Plasmodium falciparum ,using a nano luciferase reporter read-out” (2022).
Where “and” joins values, the source holds several entries; their conditions need not be identical. Identical values can stand only once. Screen size: about 150,000 compounds; about 540 (0.36%) showed an effect of 50% or more. Some of the results follow.

System: Plasmodium falciparum
Experiment: Primary screen in NF54 nanoGlo assay, in single point, at 2uM, 72h; a lower Z score goes with more inhibition
Format: functional, Erythrocyte
Conditions: timepoint 72 hour

SMILES | % Inhibition [%] | Z score | % Inhibition (2 µM)
NC[C@H]1CCN(Cc2cccn2-c2ncccn2)C1 | 8 | -0.78 | 
N#Cc1ccccc1C(=O)N1CCC(Oc2ccccc2)(C(=O)O)CC1 | 0 | 0.03 | 
C[C@H]1CN(Cc2ccc(Cl)c(F)c2)CC[C@]1(O)C1CC1 | -7 | 0.97 | 
O=C(CC1CC2CCC1O2)Nc1ncccc1Cl (stereo not given) | -3 | 0.64 | 
CCC1CC(CC(=O)Nc2ncc3cccnc3n2)CCO1 (stereo not given) | 3 | -0.51 | 
Cn1c(CN2CCCC2)nnc1[C@H]1CCCN(c2nccc(N)n2)C1 | -3 | 0.57 | 
CN1CCN(c2cccc(N3CCC(N4CC(N5CCOCC5)C4)CC3)c2)C1=O | -6 | 1.26 | 
CC(C)COc1cccc(Cn2cc(CN3CCOC[C@H]3C)nn2)c1 | -2 | 0.4 | 
COc1cccc(Cn2cc(CN3CCOCC3)cc(C#N)c2=O)c1Cl | 24 | -3.11 | 
CCOC(=O)C[C@H](N)c1cccc(Cl)c1Cl | 1 | -0.1 | 
COc1ccc(N2CCN(C3CCCCC3NS(=O)(=O)c3ccccc3)CC2)cc1 (stereo not given) | -13 | 1.46 | 
CN(Cc1ccccc1)Cc1nnc2sc(-c3ccc4ccccc4n3)nn12 | -6 | 1.07 | 
NC(=O)C[C@H]1COCCN1C(=O)c1csc2c1CCCC2 | 1 | -0.13 | 
CC1=NN(Cc2ccccc2)C(=O)[C@H]1C(=O)Cn1nnc2ccccc21 | -3 | 0.44 | 
C[C@H]1CCCCN1C(=O)c1ccc(NC(=O)c2cn(C(C)(C)C)nn2)cc1 | -10 | 0.92 | 
OCCNc1nc([C@H]2CCOC2)cc(N2CCN(c3ccncc3)CC2)n1 | -5 | 0.71 | 
CCNC(=O)Nc1ccc(N(C)C)c(CN(C(=O)C(CC)CC)C2CCCCC2)c1 | -13 | 2 | 
O=C(Cn1ncc(-c2ccccc2)nc1=O)Nc1ccccc1C(F)(F)F | 8 | -1.05 | 
O=C(CCc1ccc(F)c(F)c1)N(Cc1ccccc1)CC1(O)CCCC1 | -1 | 0.11 | 
CN(C)c1nc(CNc2cc(Cl)ccc2N2CCC(CO)CC2)ns1 | -2 | 0.47 | 
CC(C)(C)[C@H](NS(C)(=O)=O)C(=O)N1Cc2ccccc2C2(CC2)C1 | -6 | 1.23 | 
CNC(=O)CNC(=O)c1cc(C)oc1C | -40 | 4.7 | 

SMILES | % Inhibition [%] | Z score | % Inhibition (2 µM)
CC(=O)N1CCO[C@H](C(=O)Nc2cc(N3CCCC3=O)ccc2F)C1 | -4 | 0.59 | 
CN(C)c1cc(C(=O)N2CCC3OCCCC3C2)ccn1 (stereo not given) | -11 | 1.47 | 
Cc1cc(S(=O)(=O)[C@H]2CS(=O)(=O)C[C@@H]2N2CCc3ccccc3C2)ccc1F | -2 | 0.26 | 
Oc1ccc(OCc2ccccc2)cc1-c1c[nH]nc1-c1ccco1 |  |  | 13% and -4%
CCOc1ccc(NC(=O)N(CCCN(C)c2ccccc2)Cc2cccn2Cc2ccc(Cl)cc2)cc1 | -3 | 0.54 | 
CC1(C)CCN(C(=O)c2cc(Cc3ccccc3)n[nH]2)CC1 | -1 | 0.23 | 
Cc1ncsc1CN1CC[C@H](n2cc(COCc3ccccc3)nn2)C1 | -6 | 0.83 | 
CN1CCN(C(=O)C(c2ccccc2)c2ccccc2)[C@H]2CS(=O)(=O)C[C@H]21 | 5 | -0.51 | 
COCc1n[nH]c(-c2cccc3nc(C)ccc23)n1 | -4 | 0.66 | 
CN(CCc1noc(C2CC2)n1)C(=O)[C@H](N)c1ccccc1 | 3 | -0.37 | 
CCc1cc(N2CCCC2C(=O)N(C)C)nc(CN2CCCC2C(=O)N(C)C)n1 (stereo not given) | 2 | -0.14 | 
CCc1nc(CC(=O)O[C@H]2CCN(CCF)C2)cs1 | -2 | 0.24 | 
Cn1nccc1C(=O)N1CCC(CC2CC2)(NS(C)(=O)=O)CC1 | -7 | 1.29 | 
O=C1Cc2ccc(NS(=O)(=O)c3ccc4c(c3)NC(=O)CO4)cc2N1 | 0 | 0.06 | 
O=C(O)c1cnc2c(Cl)c(Cl)ccc2c1O | -2 | 0.27 | 
O=C(Cn1c(=O)ccc2cc(S(=O)(=O)N3CCCC3)ccc21)N1CCN(c2ncccn2)CC1 | -6 | 0.77 | 
C#CCN(C)C(=O)c1ccc(Cl)cc1C | -12 | 1.74 | 
Cc1ccccc1S(=O)(=O)Cc1nc(N(C)C)no1 | -2 | 0.26 | 
O=C(C1CCCCN1Cc1ccncc1)N1CCOC2CCCCC21 (stereo not given) | 1 | -0.23 | 
O=C(N[C@H]1CCS(=O)(=O)C1)c1ccccc1NC(=O)c1nsc2ccccc12 | -3 | 0.46 | 
CC1(C)C[C@H](NCCCNC(=O)c2cccc(O)c2)C(C)(C)O1 | 0 | -0.03 | 
